Source: PubChem BioAssay AID1963576 (National Center for Advancing Translational Sciences (NCATS), 2024)
The whole screen tested about 46,000 compounds, of which about 60 (0.1%) were called active. Roughly 3% stayed inconclusive and do not appear here. The call rests on the fitted dose curve; in most records, active means well fitted inhibition curve with a large enough effect; inconclusive means small, poorly fitted or top-dose-only effect; inactive means no such curve, though single readings can be large or run the other way. The list shows a part of the results.

assay: Primary qHTS assay for Inhibitors of ovarian cancer metastasis using an organotypic tumor microenvironment (TME) model.; further: nearly all actives have a fitted effect of over 65% in size;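 on activity change, negative = inhibition: plate controls were DMSO wells for no effect and tomatine positive control wells for full effect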; settings: SKOV3ip1-GFP adhesion/invasion on 3D omental model, fluorescence; series mostly up to 45.8 µM; activity change, negative = inhibition: at the top concentration
How it was run: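 qHTS, 4-pt dose (0.36-46 umol/L); SKOV3ip1-GFP, 1,200 cells/well, no FBS; primary omental fibroblast/mesothelial co-culture 48 h pre-grown; 2 h RT + 16 h 37 C; PBS wash, 4% PFA; GFP count 488/509 nm.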

Row | SMILES | activity change, negative = inhibition | outcome
1 | CC1=C(C(=O)Nc2cccnc2)C(c2ccccc2)n2nc(SCc3ccccc3Cl)nc2N1 (stereo not given) | inactive: 13.5% | –
2 | O=C(Nc1ccc(N2CCN(c3ccc(F)cc3)CC2)c(C(=O)O)c1)c1ccccc1F | inactive: -7.77% | –
3 | COc1ccc(C)cc1NC(=O)C1CCN(S(=O)(=O)c2ccc3c(c2)CCCN3C(C)=O)CC1 | inactive: 5.33% | –
4 | CCCCOc1ccc(Cn2c(=O)oc3ccc(C)cc32)cc1 | inactive: -7.65% | –
5 | CCc1ccc(NC(=O)CN2C(=O)C(c3ccc(F)cc3)=NC2(C)C)cc1 | inactive: -14.7% | –
6 | CCOC(=O)c1ccc(NC(=O)CSc2nc3ccccc3c(=O)n2CCNC(C)=O)cc1 | – | inactive
7 | Cc1ccc(CCNC(=O)Cn2ncc3c([nH]c4ccc(C)cc43)c2=O)cc1 | inactive: -4.14% | –
8 | O=C(CS(=O)(=O)c1cccc2nsnc12)Nc1ccc(F)cc1 | – | inactive
9 | COc1ccc(OC)c(NC(=O)CSc2cn(CC(=O)N3CCCCCC3)c3ccccc23)c1 | inactive: 8.79% | –
10 | CCCN(CCC)CCNC(=O)Cn1cc2c(n1)-c1c(oc(C(=O)N3CCCC3)c1C)CC2 | inactive: -9.97% | –
11 | Cc1cccc(-c2nnn3c2nc(NCCc2ccc(S(N)(=O)=O)cc2)c2ccccc23)c1 | – | inactive
12 | CCOc1ccc(Cn2c(-c3ccc(OCC)c(OC)c3)nc3ccccc32)cc1OC | inactive: -4.12% | –
13 | Cc1cc(NCc2ccccc2Cl)n2cnnc2n1 | inactive: -29.1% | –
14 | Cc1ccc(NC(=O)CSc2nc3ccccc3nc2Cc2ccccc2)c(C)c1 | inactive: -2.87% | –
15 | Cc1cccc(NC(=O)c2cc(-c3ccc4c(c3)OCCO4)on2)c1 | inactive: -0.75% | –
16 | COc1ccc(S(=O)(=O)N2CCN(c3ccc(Cl)c(Cl)c3)CC2)c2ccccc12 | inactive: 2.62% | –
17 | COCCNC(=O)c1ccc2c(c1)N(Cc1cc(C)ccc1C)C(=O)c1ccccc1S2(=O)=O | – | inactive
18 | CCSc1ncc(Cl)c(C(=O)N(Cc2ccc(N(C)C)cc2)Cc2ccco2)n1 | – | inactive
19 | COCCNC(=O)CSc1nc2cc3c(cc2c(=O)n1CCCC(=O)NCc1ccc(OC)cc1)OCO3 | – | inactive
20 | COC(=O)c1cc(S(=O)(=O)NCC2CCN(Cc3ccc(F)cc3)CC2)c[nH]1 | – | inactive
21 | CSc1ncc(C(=O)Nc2cccc(C)c2C)c(-c2ccccc2)n1 | – | inactive
22 | COc1ccc(CNC(=O)C2CCN(S(=O)(=O)c3ccc(F)cc3)CC2)cc1 | inactive: 3.96% | –
23 | Cc1ccc(NC(=O)CSc2nc(-c3ccc(C(C)(C)C)cc3)nc3cc(=O)[nH]n23)cc1C | – | inactive
24 | Cc1ccc(CNC(=O)C2CCCCN2S(=O)(=O)c2ccc(F)cc2)cc1 (stereo not given) | inactive: 3.37% | –

Row | SMILES | activity change, negative = inhibition | outcome
25 | Cc1ccc(-c2nc(-c3cc4cccc(OCc5ccc(F)cc5)c4oc3=O)no2)cc1 | – | inactive
26 | CC(CNC(=O)c1ccc(CSc2nc3ccncc3n2Cc2ccc(F)cc2)cc1)c1ccccc1 (stereo not given) | inactive: 5.05% | –
27 | CCN(c1ccccc1)S(=O)(=O)c1nnc(NC(=O)C(C)(C)C)s1 | inactive: 3.73% | –
28 | COC(=O)c1ccc2c(c1)N(Cc1cc(C)ccc1C)C(=O)c1ccccc1S2 | inactive: -0.146% | –
29 | COc1ccc(-c2cc3ccc(O)c(CN4CCCC(C)C4)c3oc2=O)cc1 (stereo not given) | inactive: -4.39% | –
30 | CCOc1ccc(CCNC(=O)Cn2c(=O)c3cccn3c3ccc(F)cc32)cc1OCC | inactive: -8.64% | –
31 | COC(=O)c1ccc(Cn2c(SCc3ccccc3F)nc3ccncc32)cc1 | inactive: 14.2% | –
32 | CCOc1ccc2nc(N3CCCC(C(=O)NCCCOC)C3)sc2c1 (stereo not given) | – | inactive
33 | Cc1nc2nc(NCc3cccc(Cl)c3)[nH]n2c(=O)c1Cc1ccccc1 | inactive: 1.51% | –
34 | CCN(CC)S(=O)(=O)c1ccc2c(c1)nc(CN(C)C(=O)Nc1cccc(Cl)c1)n2C | inactive: -23% | –
35 | COc1cccc(C(=O)c2cn(CC(=O)Nc3cccc(C(F)(F)F)c3)c3nc(C)ccc3c2=O)c1 | inactive: -2.58% | –
36 | CC(=O)N1CCc2cc(S(=O)(=O)NC(CC(C)C)C(=O)NCCc3ccc(C)cc3)ccc21 (stereo not given) | inactive: 4.14% | –
37 | COc1ccc(Cn2c(CCC(=O)Nc3ccc(C)c(C)c3)nc3cccnc32)cc1 | inactive: -1.7% | –
38 | Cc1ccc(Cl)cc1-n1ncc2c(NCc3ccc(F)cc3)ncnc21 | inactive: -0.355% | –
39 | CC1C(=O)Nc2ccc(S(=O)(=O)NCc3ccc(N(C)C)cc3)cc2NC1=O (stereo not given) | inactive: -6.44% | –
40 | COc1ccc(OCCn2c(C(C)Oc3ccccc3)nc3ccccc32)cc1 (stereo not given) | inactive: 2.04% | –
41 | CCOC(=O)c1cnc2ccc(C(=O)OC)cc2c1Nc1ccccc1CC | inactive: 3.94% | –
42 | Cc1ccccc1Cn1nnc2c(=O)[nH]c(C3CCN(C(=O)c4ccccc4)CC3)nc21 | inactive: -22% | –
43 | CCOc1ccc(C2c3[nH]c4ccccc4c3CCN2C(=O)Cc2cccc(OCC)c2OCC)cc1 (stereo not given) | inactive: -1.93% | –
44 | COc1ccc(-c2nc3sc(CCNC(=O)c4cccc(C(F)(F)F)c4)c(C)n3n2)cc1 | – | inactive
45 | Cc1cc(C)cc(-n2ccnc2SCC(=O)Nc2nc3ccccc3s2)c1 | – | inactive
46 | CCOC(=O)c1c(S(=O)(=O)NCC(=O)Nc2ccc(C)c(Cl)c2)c(C)n(C)c1C | inactive: 6.21% | –
47 | CCC(C(=O)NCc1ccccc1OC)n1nc(C)n2c(cc3sccc32)c1=O (stereo not given) | – | inactive
48 | CC(C)Oc1ccc(CNC(=O)c2ccc(NC(=O)N3CCSc4ncccc43)cc2)cc1 | – | inactive

Row | SMILES | activity change, negative = inhibition | outcome
49 | COc1ccc(NC(=O)C2CCCN2S(=O)(=O)c2cccc3cccnc23)cc1OC (stereo not given) | inactive: 10.6% | –
50 | CC(C)(C)n1cnc2cc(NCc3ccccc3Cl)ccc21 | inactive: 6.36% | –
51 | CSc1ncc(C(=O)NCc2ccccc2)c(-c2ccccc2)n1 | inactive: -9.19% | –
52 | O=C(C=Cc1ccc(O)cc1)c1ccc(O)cc1O | inactive: 0.446% | –
53 | Cc1ccc(C)c(Nc2nn3c(=O)c4ccc(C(=O)NCCc5ccccc5)cc4nc3s2)c1 | – | inactive
54 | CN(C)c1ccc(CNC(=O)C2CCN(S(=O)(=O)c3ccc4c(ccn4C)c3)CC2)cc1 | inactive: 1.64% | –
55 | COCCCn1c(SCC(=O)NCc2ccccc2)nc2c(sc3ccccc32)c1=O | inactive: 0.353% | –
56 | COc1ccc(C(=O)Nc2nc3c(s2)CCc2cc(OC)ccc2-3)cc1 | inactive: -7.85% | –
57 | Cc1ccc(N2CCN(C(=O)c3c4c(nc5ccccc35)C(=O)N(C3CCCCC3)C4)CC2)c(C)c1 | inactive: 0.242% | –
58 | CCOC(=O)c1ccc(NC(=O)C(CC)Sc2nc3ncccc3o2)cc1 (stereo not given) | inactive: 16% | –
59 | CN(C)c1ccc2nc3ccc(=[N+](C)C)cc-3sc2c1 | inactive: 1.36% | –
60 | Cc1ccc(C)c(N2CCN(C(=O)Cn3c(-c4cccs4)cc4ccccc43)CC2)c1 | inactive: 5.63% | –
61 | CCN(C(=O)Cn1cc(S(=O)(=O)Cc2ccccc2Cl)c2ccccc21)c1ccccc1 | inactive: -10.7% | –
62 | Cc1ccc(-c2cc(C(=O)NCc3cnn(C)c3)c3cc(Br)ccc3n2)cc1 | – | inactive
63 | Cc1ccc(-n2c(SCC(=O)Nc3ccc4c(c3)OCO4)nc3c([nH]c4ccccc43)c2=O)cc1 | inactive: 7.45% | –
64 | CCOc1cc(C2c3c(oc4ccc(F)cc4c3=O)C(=O)N2Cc2ccco2)ccc1O (stereo not given) | inactive: 14.1% | –
65 | CC(C)n1c(C=C[C@H](O)C[C@H](O)CC(=O)O)c(-c2ccc(F)cc2)c2ccccc21 | inactive: 1.69% | –
66 | CCc1nc(-c2cccc(C)c2)c(-c2ccnc(NC(=O)c3ccccc3)c2)s1 | inactive: 7.85% | –
67 | Cc1ccc(-n2ncc3c(N4CCN(CCO)CC4)ncnc32)cc1Cl | inactive: 1.67% | –
68 | CCCCNc1nc(Oc2ccc(OCC(N)=O)nn2)nc(N2CCOCC2)n1 | inactive: -12.3% | –
69 | CCC(=O)C1=C(c2cccc([N+](=O)[O-])c2)N(C(=O)CC)n2c(nnc2-c2ccccc2)S1 | – | inactive
70 | COc1ccc(CCNc2ncnc3c2c(-c2ccccc2)cn3-c2ccc(F)cc2)cc1OC | inactive: 2.53% | –
71 | Cc1ccc(Cc2nc3ccccc3nc2SCC(=O)NCc2ccc(F)cc2)cc1 | – | inactive
72 | Cc1cc(Br)ccc1NC(=O)c1cn(C2CCCC2)c(=O)c2c1c1ccccc1n2C | – | inactive

Row | SMILES | activity change, negative = inhibition | outcome
73 | Cc1cccc(C(=O)N2CCc3cc(CNC(=O)Cc4ccc(F)cc4)ccc32)c1 | inactive: 2.83% | –
74 | CCc1ccccc1N(C)C(=O)c1cnc(N2CCOCC2)c2ccccc12 | inactive: -7.87% | –
75 | CN1C(C(=O)Nc2ccccn2)=C(O)c2sccc2S1(=O)=O | inactive: -15% | –
76 | CCOc1ccc(NC(=O)c2cc(S(=O)(=O)N3CCCCC3)c[nH]2)cc1 | – | inactive
77 | COc1cccc(CNc2nc3c(-c4ccccc4)nnn3c3ccccc23)c1 | – | inactive
78 | COc1ccc(CCNC(=O)Cn2c(=O)n(-c3cc(OC)c(OC)c(OC)c3)c(=O)c3ccccc32)cc1OC | inactive: 2.02% | –
79 | COc1cccc(NS(=O)(=O)c2ccc3[nH]cc(C(=O)NCCc4ccccc4)c(=O)c3c2)c1 | – | inactive
80 | CCOc1ccc(CCNCc2c(C(=O)O)n(Cc3ccc(C)cc3)c3cc(OC)ccc23)cc1 | inactive: -23.5% | –
81 | CN(Cc1ccccc1)C(=O)CSc1nc2ccsc2c(=O)n1-c1ccc(F)cc1 | – | inactive
82 | CC(C)C(C)C=CC(C)C1CCC2C3=CC=C4CC(O)CCC4(C)C3CCC21C (stereo not given) | inactive: -5.41% | –
83 | CCc1ccccc1NC(=O)Cn1c(=O)n(CC2CCC(C(=O)NCCc3ccccc3)CC2)c(=O)c2ccccc21 (stereo not given) | – | inactive
84 | O=S(=O)(c1ccccc1F)N1CCC(Oc2ccc(-n3cnnn3)cc2)CC1 | – | inactive
85 | COc1cccc(N2C(=O)N(Cc3ccc(C#N)cc3)c3ccccc3S2(=O)=O)c1 | – | inactive
86 | CCn1cc(C(=O)NCCCN(CC(C)C)CC(C)C)c(=O)c2cc(S(=O)(=O)N(C)C3CCCCC3)ccc21 | inactive: 4.08% | –
87 | COc1ccc(NC(=O)CCc2nnc3n(C)c(=O)c4sccc4n23)cc1Cl | inactive: 0.314% | –
88 | O=C(NCc1ccccc1Cl)c1cnc2sc(N3CCOCC3)nn2c1=O | inactive: -2.11% | –
89 | COc1ccc(-c2noc(-c3ccc(NCc4cccnc4)c([N+](=O)[O-])c3)n2)cc1 | – | inactive
90 | CCC(=O)N1CCc2cc(Br)cc(S(=O)(=O)CCC(=O)Nc3ccc(C)c(C)c3)c21 | – | inactive
91 | Cc1ccc(S(=O)(=O)c2nc(-c3ccccc3Cl)oc2N2CCCCCC2)cc1 | inactive: -11% | –
92 | CCc1ccc(NC(=O)C(=O)NCC(c2ccc3c(c2)OCO3)N2CCOCC2)cc1 (stereo not given) | inactive: 0.551% | –
93 | COc1ccc(-c2cc(C(=O)Nc3ccn(Cc4ccc(C)cc4)n3)no2)cc1OC | inactive: -3% | –
94 | COc1ccc(C2=NS(=O)(=O)N(C)C(C(=O)NCc3ccccc3)=C2)cc1OC | inactive: -3.91% | –
95 | COc1cc2oc(=O)c(CC(=O)N3CCCCC3)c(C)c2cc1OC | inactive: 28.4% | –
